{"source": "the supplement of paper PMC3334620", "note": "Over roughly 33,000 sequences, “E-score (-0.5 to 0.5)” has its median near -0.016; the highest 2% begin near 0.31. Some of the results follow.", "data": [{"biological_target": "Cst6 (UniProt P40535)", "experiment": "PBM E-score (8-mer binding enrichment) (E-score (-0.5 to 0.5)); higher = stronger / more preferred TF binding; most listed sequences are background and not binding sites", "conditions": "protein concentration: 200 nM; construct: GST-DNA-binding domain", "outline": "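Detection of bound protein used fluorescent anti-GST, with scans normalised by masliner. The proteins were GST-tagged yeast transcription factors applied at about 100-200 nM to universal all-10-mer Agilent arrays made double-stranded by primer extension. Each ungapped eight-base word, pooled with its reverse complement, was scored with an E-score from the Universal PBM Analysis Suite.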", "values": [{"sequence": "TGGACGAA", "PBM E-score": 0.089}, {"sequence": "AAATAACT", "PBM E-score": 0.249}, {"sequence": "CATTAAGG", "PBM E-score": 0.12}, {"sequence": "CGACACCG", "PBM E-score": -0.222}, {"sequence": "AGCTATGG", "PBM E-score": -0.1}, {"sequence": "CTGGTGCC", "PBM E-score": -0.0236}, {"sequence": "AGGATCAC", "PBM E-score": -0.0106}, {"sequence": "CCCTCAAG", "PBM E-score": -0.23}, {"sequence": "CTGACGTA", "PBM E-score": 0.489}, {"sequence": "CTCGGTGA", "PBM E-score": 0.135}, {"sequence": "CAAAGAAC", "PBM E-score": 0.0715}, {"sequence": "ACCTCAAC", "PBM E-score": 0.123}, {"sequence": "CCATCAGA", "PBM E-score": -0.134}, {"sequence": "GTATAGAA", "PBM E-score": 0.0359}, {"sequence": "AGTGATCG", "PBM E-score": 0.0149}, {"sequence": "ATGAACGG", "PBM E-score": -0.0194}, {"sequence": "CTAGCGTC", "PBM E-score": -0.0842}, {"sequence": "ACTGTATA", "PBM E-score": 0.03}, {"sequence": "CAGAAATG", "PBM E-score": 0.127}, {"sequence": "GGGTGAGA", "PBM E-score": -0.25}, {"sequence": "CGGTTCAG", "PBM E-score": -0.219}, {"sequence": "GCGCAGAC", "PBM E-score": -0.0837}, {"sequence": "CTCCCGAC", "PBM E-score": -0.282}, {"sequence": "AAGGCTTC", "PBM E-score": -0.127}, {"sequence": "ACGCGATG", "PBM E-score": 0.122}, {"sequence": "CCAGAAGA", "PBM E-score": -0.0494}, {"sequence": "CCTTTCAA", "PBM E-score": 0.0356}, {"sequence": "GAGAGATA", "PBM E-score": 0.0892}, {"sequence": "CCTACAAG", "PBM E-score": -0.107}, {"sequence": "ATGATAGA", "PBM E-score": 0.00031}, {"sequence": "CGACTCTA", "PBM E-score": -0.123}, {"sequence": "CCCTGACC", "PBM E-score": -0.0453}, {"sequence": "CACCACAG", "PBM E-score": -0.199}, {"sequence": "ACCAAACA", "PBM E-score": 0.277}, {"sequence": "ACAGCCCC", "PBM E-score": -0.228}, {"sequence": "ACTCTGCA", "PBM E-score": -0.0716}, {"sequence": "GCGAGCCA", "PBM E-score": -0.137}, {"sequence": "CAGATCGG", "PBM E-score": -0.0878}, {"sequence": "CGTACAGC", "PBM E-score": -0.108}, {"sequence": "ATTATTGG", "PBM E-score": 0.142}, {"sequence": "GCTAAAGC", "PBM E-score": -0.00731}, {"sequence": "CCTAGATC", "PBM E-score": -0.263}, {"sequence": "ATGGACAT", "PBM E-score": 0.107}, {"sequence": "CCTCTTTA", "PBM E-score": -0.0798}, {"sequence": "GTAGTGTA", "PBM E-score": -0.0469}, {"sequence": "ACCATTTC", "PBM E-score": 0.0835}, {"sequence": "CCCGTAAG", "PBM E-score": 0.106}, {"sequence": "AACCCATC", "PBM E-score": -0.115}, {"sequence": "GCCCTCCC", "PBM E-score": -0.246}, {"sequence": "AGCGATAT", "PBM E-score": 0.164}, {"sequence": "CAAAATAC", "PBM E-score": 0.146}, {"sequence": "CCAATTGA", "PBM E-score": 0.0692}, {"sequence": "GTTATTCA", "PBM E-score": 0.188}, {"sequence": "ATGCACTA", "PBM E-score": -0.0417}, {"sequence": "GACCCAAA", "PBM E-score": 0.117}, {"sequence": "TAAGTGAA", "PBM E-score": 0.111}, {"sequence": "GGCAAGAC", "PBM E-score": -0.243}, {"sequence": "CGCCACCC", "PBM E-score": -0.236}, {"sequence": "ATCACCTG", "PBM E-score": 0.0249}, {"sequence": "CAGCTATG", "PBM E-score": -0.161}, {"sequence": "CATGGACA", "PBM E-score": -0.152}, {"sequence": "AACAGGCG", "PBM E-score": -0.0909}, {"sequence": "GCGTGGCA", "PBM E-score": -0.0602}, {"sequence": "ATAATGTA", "PBM E-score": 0.203}, {"sequence": "CAGTGTTA", "PBM E-score": 0.185}, {"sequence": "GATCGACC", "PBM E-score": -0.229}, {"sequence": "ACCCGACC", "PBM E-score": -0.0976}, {"sequence": "TAGGGCAA", "PBM E-score": -0.149}, {"sequence": "CAGTCATA", "PBM E-score": 0.123}, {"sequence": "CCGCTTGA", "PBM E-score": 0.0541}, {"sequence": "GGCCTGAA", "PBM E-score": -0.122}, {"sequence": "GGAAACCA", "PBM E-score": -0.221}, {"sequence": "CAATCAAC", "PBM E-score": 0.097}, {"sequence": "ACTTGTCG", "PBM E-score": -0.16}, {"sequence": "AGTTTCTC", "PBM E-score": 0.12}, {"sequence": "AAATGTAA", "PBM E-score": 0.302}, {"sequence": "ACAGCGTA", "PBM E-score": 0.0363}, {"sequence": "GAAGGACA", "PBM E-score": -0.0021}, {"sequence": "ACTCTACG", "PBM E-score": -0.161}, {"sequence": "AGTGACAG", "PBM E-score": 0.15}, {"sequence": "GATCAGAA", "PBM E-score": -0.0976}, {"sequence": "CATTCAGC", "PBM E-score": -0.0359}, {"sequence": "AAGGGCAA", "PBM E-score": -0.0652}, {"sequence": "ATACCCCG", "PBM E-score": -0.193}, {"sequence": "CATGTCCA", "PBM E-score": 0.0668}, {"sequence": "GTCGCGCA", "PBM E-score": 0.0467}, {"sequence": "CTACCCAA", "PBM E-score": 0.0109}, {"sequence": "CTACAAAG", "PBM E-score": -0.0328}, {"sequence": "GCCCTGAC", "PBM E-score": -0.0555}, {"sequence": "TACACTGA", "PBM E-score": 0.0464}, {"sequence": "GAAGCGAA", "PBM E-score": 0.0593}, {"sequence": "ATGATTAA", "PBM E-score": 0.329}, {"sequence": "TCACACGA", "PBM E-score": 0.114}, {"sequence": "ACAGACTG", "PBM E-score": -0.0982}, {"sequence": "ACATTCGT", "PBM E-score": 0.076}, {"sequence": "AGTATCGG", "PBM E-score": -0.161}, {"sequence": "CTCCAATA", "PBM E-score": 0.053}, {"sequence": "CAATTAGG", "PBM E-score": 0.0223}, {"sequence": "ACAAAGGA", "PBM E-score": 0.0643}, {"sequence": "ATCGGCCG", "PBM E-score": -0.102}, {"sequence": "CACCTATA", "PBM E-score": 0.0527}, {"sequence": "AGACGTCG", "PBM E-score": -0.103}, {"sequence": "GACGGTAA", "PBM E-score": 0.181}, {"sequence": "TAGCCGCA", "PBM E-score": -0.00413}, {"sequence": "GTCATGGA", "PBM E-score": 0.0321}, {"sequence": "CGGAAACC", "PBM E-score": -0.345}, {"sequence": "ACAAATGC", "PBM E-score": 0.164}, {"sequence": "AGAAAACA", "PBM E-score": 0.195}, {"sequence": "AAAGGACA", "PBM E-score": -0.029}, {"sequence": "AACGGGGT", "PBM E-score": -0.196}, {"sequence": "GTAAAGAC", "PBM E-score": 0.112}, {"sequence": "CACTGAGC", "PBM E-score": 0.0764}, {"sequence": "GTGAGAAC", "PBM E-score": -0.113}, {"sequence": "AGGGATCA", "PBM E-score": -0.164}, {"sequence": "ATTAATTC", "PBM E-score": 0.274}, {"sequence": "AGCAACCC", "PBM E-score": -0.166}, {"sequence": "CCCTCAAA", "PBM E-score": -0.0665}, {"sequence": "GGCTTACC", "PBM E-score": -0.247}, {"sequence": "AAAACACT", "PBM E-score": 0.117}, {"sequence": "CTTCACTC", "PBM E-score": -0.181}, {"sequence": "CGTTAAGC", "PBM E-score": -0.0782}, {"sequence": "AAAACGCC", "PBM E-score": 0.268}, {"sequence": "GAGGGCCA", "PBM E-score": -0.28}, {"sequence": "CTGTTGCA", "PBM E-score": 0.00189}, {"sequence": "AGACTGGC", "PBM E-score": -0.275}, {"sequence": "ACCTCTTC", "PBM E-score": -0.00669}, {"sequence": "GCTATCTA", "PBM E-score": -0.222}, {"sequence": "CATCGTTA", "PBM E-score": -0.00774}, {"sequence": "GACCTCAC", "PBM E-score": 0.221}, {"sequence": "TCCCAGCA", "PBM E-score": -0.138}, {"sequence": "CATTGTGG", "PBM E-score": -0.128}, {"sequence": "ATTCATTA", "PBM E-score": 0.244}, {"sequence": "CGGTATAA", "PBM E-score": -0.0227}, {"sequence": "AACAGATT", "PBM E-score": 0.0568}, {"sequence": "AAGCCGTG", "PBM E-score": 0.215}, {"sequence": "CGGGTTTC", "PBM E-score": 0.0719}, {"sequence": "AGGCCTAC", "PBM E-score": -0.0984}, {"sequence": "ATATCCTG", "PBM E-score": -0.089}, {"sequence": "CGGTTAAC", "PBM E-score": -0.0675}, {"sequence": "CAGCCTTC", "PBM E-score": -0.138}, {"sequence": "GTACTGGA", "PBM E-score": 0.0483}, {"sequence": "AGTCCCGC", "PBM E-score": -0.241}, {"sequence": "ACGTTGGA", "PBM E-score": 0.0372}, {"sequence": "GAACGTAA", "PBM E-score": 0.277}, {"sequence": "CCCTAACA", "PBM E-score": 0.127}, {"sequence": "AAGCTGTC", "PBM E-score": -0.141}, {"sequence": "GAGTCTGC", "PBM E-score": -0.276}, {"sequence": "ACCTGCGC", "PBM E-score": -0.101}, {"sequence": "AGGGACGC", "PBM E-score": -0.177}, {"sequence": "AGGCATCG", "PBM E-score": -0.0261}, {"sequence": "AGGCCCTC", "PBM E-score": -0.262}, {"sequence": "AACGAGAT", "PBM E-score": -0.0118}, {"sequence": "CCAAGTAC", "PBM E-score": -0.159}, {"sequence": "AGAACGTC", "PBM E-score": 0.142}, {"sequence": "GATTCTCA", "PBM E-score": 0.0989}, {"sequence": "ACGATGAG", "PBM E-score": 0.119}, {"sequence": "GTGTGCAA", "PBM E-score": -0.129}, {"sequence": "GAGACATA", "PBM E-score": -0.00422}, {"sequence": "CGATCACA", "PBM E-score": 0.117}, {"sequence": "GCTGTTGA", "PBM E-score": 0.269}, {"sequence": "CCCTAATA", "PBM E-score": -0.0994}, {"sequence": "GCATTCAA", "PBM E-score": 0.0262}, {"sequence": "ACTCCCAA", "PBM E-score": -0.145}, {"sequence": "CTCGAAAG", "PBM E-score": -0.125}, {"sequence": "CGTTCTAG", "PBM E-score": 0.00736}, {"sequence": "CTAGACAG", "PBM E-score": -0.119}, {"sequence": "ACTAGTAC", "PBM E-score": -0.0411}, {"sequence": "CAATGACA", "PBM E-score": 0.341}, {"sequence": "CTACAGCA", "PBM E-score": -0.121}, {"sequence": "GAGACCAA", "PBM E-score": -0.0329}, {"sequence": "AATTAAGA", "PBM E-score": 0.0948}, {"sequence": "GATCTTCA", "PBM E-score": 0.0767}]}]}
